Some of the results follow. Single values of this set are uncertain. Values with irradiation are relative to irradiated vehicle.
Tests used:
[1] = tested on: A549-Dual; assay: NF-kB reporter (SEAP) activity, viability-corrected, relative to vehicle (fold change vs vehicle); higher = more activation of STING-IRF / NF-kB immune response reporter
[2] = tested on: A549-Dual; assay: ISRE reporter (Lucia luciferase) activity, viability-corrected, relative to vehicle (fold change vs vehicle); higher = more activation of STING-IRF / NF-kB immune response reporter
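For NF-kB reporter (SEAP) activity, viability-corrected, relative to vehicle in this document: viability correction based on the alamar blue assay, with concentrations leaving 10% survival or less dropped.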

SMILES | NF-kB reporter ([1]; 0.1 µM, irradiation: 8 Gy/4 fr) | NF-kB reporter ([1]; 0.1 µM, irradiation: none) | NF-kB reporter ([1]; 0.3 µM, irradiation: 8 Gy/4 fr) | NF-kB reporter ([1]; 0.3 µM, irradiation: none) | NF-kB reporter ([1]; 1 µM, irradiation: 8 Gy/4 fr) | NF-kB reporter ([1]; 1 µM, irradiation: none) | NF-kB reporter ([1]; 3 µM, irradiation: 8 Gy/4 fr) | NF-kB reporter ([1]; 3 µM, irradiation: none) | NF-kB reporter ([1]; 10 µM, irradiation: 8 Gy/4 fr) | NF-kB reporter ([1]; 10 µM, irradiation: none) | ISRE reporter ([2]; 0.1 µM, irradiation: 8 Gy/4 fr) | ISRE reporter ([2]; 0.1 µM, irradiation: none) | ISRE reporter ([2]; 0.3 µM, irradiation: 8 Gy/4 fr) | ISRE reporter ([2]; 0.3 µM, irradiation: none) | ISRE reporter ([2]; 1 µM, irradiation: 8 Gy/4 fr) | ISRE reporter ([2]; 1 µM, irradiation: none) | ISRE reporter ([2]; 3 µM, irradiation: 8 Gy/4 fr) | ISRE reporter ([2]; 3 µM, irradiation: none) | ISRE reporter ([2]; 10 µM, irradiation: 8 Gy/4 fr) | ISRE reporter ([2]; 10 µM, irradiation: none)
CC1CC2C3CCC4=CC(=O)C=CC4(C)C3(F)C(O)CC2(C)C1(O)C(=O)CO (stereo not given) [Dexamethasone (DHAP)] | 0.6 | 0.841 | 0.542 | 0.88 | 0.798 | 0.797 | 0.466 | 0.674 | 0.469 | 0.904 | 0.0659 | 0.249 | 0.0521 | 0.353 | 0.0665 | 0.343 | 0.0575 | 0.243 | 0.0512 | 0.242
O=S(=O)([O-])CCS.[Na+] [Mesna] | 0.971 | 1.01 | 0.909 | 0.925 | 0.838 | 0.875 | 0.93 | 0.802 | 1.01 | 0.874 | 1.01 | 0.932 | 0.98 | 0.92 | 0.864 | 0.885 | 0.932 | 0.742 | 1.01 | 0.904
O=C1CCC(C(=O)N2CSCC2C(=O)O)N1 (stereo not given) [Pidotimod] | 1.25 | 3.03 | 1.07 | 2.35 | 2.15 | 1.38 | 2.55 | 1.64 | 1.91 | 1.21 | 1.14 | 2.61 | 1.27 | 1.95 | 1.93 | 1.42 | 1.39 | 1.33 | 1.68 | 1
NC1CN(c2c(F)cc3c(=O)c(C(=O)O)cn(C4CC4F)c3c2Cl)CC12CC2.NC1CN(c2c(F)cc3c(=O)c(C(=O)O)cn(C4CC4F)c3c2Cl)CC12CC2.O.O.O (stereo not given) [Sitafloxacin Hydrate] | 0.925 | 1.19 | 0.769 | 0.984 | 0.895 | 1.23 | 0.806 | 1.16 | 0.903 | 0.899 | 0.835 | 1.19 | 0.844 | 0.937 | 0.885 | 1.05 | 0.847 | 0.788 | 0.889 | 0.815
CC(C(=O)O)c1ccc(-c2ccccc2)c(F)c1 (stereo not given) [Flurbiprofen] | 0.744 | 0.633 | 0.736 | 0.72 | 0.772 | 0.599 | 0.622 | 0.596 | 0.622 | 0.858 | 0.907 | 0.776 | 0.737 | 0.924 | 0.721 | 0.832 | 0.732 | 0.942 | 0.738 | 0.792
COc1cc(Nc2ncc(F)c(Nc3ccc4c(n3)N(COP(=O)([O-])[O-])C(=O)C(C)(C)O4)n2)cc(OC)c1OC.[Na+].[Na+] [R788 (Fostamatinib) Disodium] | 1.5 | 0.97 | 0.982 | 0.991 | 0.87 | 0.9 | 0.838 | 1.06 | 0.981 | 1.65 | 0.976 | 1.17 | 1.02 | 0.846 | 0.945 | 0.805 | 0.902 | 0.231 | 0.0637 | 0.169

Source: the supplement of paper PMC9174493
